Test in all cases: glycan array binding signal (z-score within array); higher = stronger binding
Holding throughout (details): glycan notation: IUPAC condensed, linker removed

Assay [1] has as its target Gal(b1-4)GlcNAc(b1-2)Man(a1-3)[Gal(b1-4)GlcNAc(b1-2)Man(a1-6)]Man(b1-4)GlcNAc(b1-4)[Fuc(a1-6)]GlcNAc. A digest of the protocol: (§1)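 Glycan array data came from 3228 arrays in the Consortium for Functional Glycomics database, and only arrays with an available protein sequence were kept. Glycan names were put into IUPAC-condensed notation, and columns mapping to the same glycan were averaged. The binding signal is a within-array Z-score, averaged across arrays of one protein sequence run at different concentrations or buffers and across linkers. A negative Z-score can be read as non-binding.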

Assay [2] deals with Gal(b1-4)GlcNAc(b1-2)Man(a1-3)[Gal(b1-4)GlcNAc(b1-2)Man(a1-6)][Gal(b1-4)GlcNAc(b1-4)]Man(b1-4)GlcNAc(b1-4)[Fuc(a1-6)]GlcNAc. A digest of the protocol:
as §1

Assay [3] concerns the target Gal(b1-4)GlcNAc(b1-2)Man(a1-3)[Gal(b1-4)GlcNAc(b1-2)Man(a1-6)][GlcNAc(b1-4)]Man(b1-4)GlcNAc(b1-4)[Fuc(a1-6)]GlcNAc. A digest of the protocol:
as §1

Assay [4] has as its target Gal(b1-4)GlcNAc(b1-2)Man(a1-3)[GlcNAc(b1-2)Man(a1-6)]Man(b1-4)GlcNAc(b1-4)GlcNAc. The gist of the method:
as §1

The target of assay [5] is Gal(b1-4)GlcNAc(b1-2)Man(a1-3)[GlcNAc(b1-4)][Gal(b1-4)GlcNAc(b1-2)Man(a1-6)]Man(b1-4)GlcNAc(b1-4)GlcNAc. A digest of the protocol:
as §1

The target of assay [6] is Gal(b1-4)GlcNAc(b1-2)Man(a1-3)[Man(a1-6)]Man(b1-4)GlcNAc(b1-4)GlcNAc. The gist of the method:
as §1

Assay [7] has as its target Gal(b1-4)GlcNAc(b1-2)Man(a1-6)Man(b1-4)GlcNAc(b1-4)GlcNAc. The gist of the method: as §1
The target in assay [8] is Gal(b1-4)GlcNAc(b1-2)Man(a1-6)[GlcNAc(b1-2)Man(a1-3)]Man(b1-4)GlcNAc(b1-4)GlcNAc. The gist of the method: as §1
Assay [9] addresses Gal(b1-4)GlcNAc(b1-2)Man(a1-6)[Man(a1-3)]Man(b1-4)GlcNAc(b1-4)GlcNAc. A digest of the protocol: as §1
For assay [10], the target named is Gal(b1-4)GlcNAc(b1-2)[Gal(b1-4)GlcNAc(b1-4)]Man(a1-3)[Gal(b1-4)GlcNAc(b1-2)Man(a1-6)]Man(b1-4)GlcNAc(b1-4)GlcNAc. The gist of the method:
as §1

Assay [11] concerns the target Gal(b1-4)GlcNAc(b1-2)[Gal(b1-4)GlcNAc(b1-4)]Man(a1-3)[Gal(b1-4)GlcNAc(b1-2)[Gal(b1-4)GlcNAc(b1-6)]Man(a1-6)]Man(b1-4)GlcNAc(b1-4)GlcNAc. The gist of the method: as §1
Assay [12] deals with Gal(b1-4)GlcNAc(b1-2)[Gal(b1-4)GlcNAc(b1-4)]Man(a1-3)[GlcNAc(b1-4)][Gal(b1-4)GlcNAc(b1-2)Man(a1-6)]Man(b1-4)GlcNAc(b1-4)GlcNAc. The gist of the method: as §1
For assay [13], the target named is Gal(b1-4)GlcNAc(b1-2)[Gal(b1-4)GlcNAc(b1-4)]Man(a1-3)[GlcNAc(b1-4)][Gal(b1-4)GlcNAc(b1-2)[Gal(b1-4)GlcNAc(b1-6)]Man(a1-6)]Man(b1-4)GlcNAc(b1-4)GlcNAc. A digest of the protocol:
as §1

The target in assay [14] is Gal(b1-4)GlcNAc(b1-2)[Gal(b1-4)GlcNAc(b1-6)]Man(a1-6)[Gal(b1-4)GlcNAc(b1-2)Man(a1-3)]Man(b1-4)GlcNAc(b1-4)GlcNAc. A digest of the protocol: as §1
Assay [15] addresses Gal(b1-4)GlcNAc(b1-2)[Gal(b1-4)GlcNAc(b1-6)]Man(a1-6)[Gal(b1-4)GlcNAc(b1-2)Man(a1-3)]Man(b1-4)GlcNAc(b1-4)[Fuc(a1-6)]GlcNAc. A digest of the protocol:
as §1

Assay [16] addresses Gal(b1-4)GlcNAc(b1-2)[Gal(b1-4)GlcNAc(b1-6)]Man(a1-6)[GlcNAc(b1-4)][Gal(b1-4)GlcNAc(b1-2)Man(a1-3)]Man(b1-4)GlcNAc(b1-4)GlcNAc. A digest of the protocol: as §1
The target in assay [17] is Gal(b1-4)GlcNAc(b1-2)[Gal(b1-4)GlcNAc(b1-6)]Man(a1-6)[GlcNAc(b1-4)][Gal(b1-4)GlcNAc(b1-2)[Gal(b1-4)GlcNAc(b1-4)]Man(a1-3)]Man(b1-4)GlcNAc(b1-4)[Fuc(a1-6)]GlcNAc. The gist of the method:
as §1

The target in assay [18] is Gal(b1-4)GlcNAc(b1-3)Gal(b1-3)GalNAc. The gist of the method: as §1

The list shows a part of the results.

B1: Epa7 (Candida glabrata), Q6DTM6_CANGB (protein)
chain: MGSSHHHHHHSSGLVPRGSHMKDDYSSFLSNNNLGWTDPTEFPLGCSPNVTTPKNGLSMELYSYDLRKNGSYPCWDAAYLDPNYPRTGYKSHRLLAKVDGVTGNINFYYHATKGCTPEIDHLPASYNYPKPLTMTNFTMLLYGYFKPKVTGYHTFTISADDLLFVNFGAGNAFDCCKRESSADDFGNYQAYAVWGSQTAKDDLTVHLDAGLYYPIRIFFNNREYDAELSLTLKTESDSNPVIDFSDYFYSFDDTKDGCPGLVSYDTS
With B1, the “glycan array binding signal (z-score)” value in assay [1] is -0.193; in [2] it was -0.207; in assay [3] it was -0.208; in assay [4], -0.18; in assay [5] it was -0.227; in assay [6] it was -0.174. Besides, the “glycan array binding signal (z-score)” value in [7] was -0.212; in [8], -0.215; in assay [9] it was -0.204; in [10], 0.223; in [11] it was 0.385; in [12], 0.044. Besides, the “glycan array binding signal (z-score)” value was 0.541 in [13]; 0.121 in assay [14]; 0.253 in assay [15]; -0.046 in assay [16]; 0.58 in assay [17]; -0.184 in [18].

Source of the values: the supplement of paper PMC8728848.
